# The other results are listed elsewhere or left out.
# T1: UNK ZnF1-6 (called full-length) (human, UniProt Q9C0B0 30-357)
# T1 sequence: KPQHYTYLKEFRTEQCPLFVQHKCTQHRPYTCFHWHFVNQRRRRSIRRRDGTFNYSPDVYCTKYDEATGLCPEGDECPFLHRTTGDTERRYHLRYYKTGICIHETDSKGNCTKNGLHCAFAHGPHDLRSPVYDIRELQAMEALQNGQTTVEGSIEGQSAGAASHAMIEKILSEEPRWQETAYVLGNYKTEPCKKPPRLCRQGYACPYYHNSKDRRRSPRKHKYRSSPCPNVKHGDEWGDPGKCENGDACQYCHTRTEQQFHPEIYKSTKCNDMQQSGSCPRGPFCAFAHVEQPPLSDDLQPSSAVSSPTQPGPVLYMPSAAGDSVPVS
# B1: chr19:22391518:22392981:-|CDS|ENSG00000197360|control|control|control (ssRNA)
# RNA: GGGAGUUCUACAGUCCGACGAUCCAUAAGAGAAUUCAUGCUGGAGAGAAAUUCUACAAAUGUGAAGUAUGUAGCAAAGCCUUUAGCCGGUUCUCACACCUUACUACACAUAAGAGAAUUCAUACUGGAGAGAAGCCCUACAAACAACAGAGGAUUGAGCAUCA
# B2: chr14:52864448:52864598:-|CDS|ENSG00000073712|unk|total|mutant (ssRNA)
# RNA: GGGAGUUCUACAGUCCGACGAUCGAUGGCAGCCUGCAGAUCCGCCUCCAAAGGCAAGACCAUGGCGGACAGUUCUUACAACUCCGAAGUUCAGAAUAUUCUUUCCUUUCUGAAGAUGCAGCAUUUAAACCCAGAUCCUCAGUUCAACAGAGGAUUGAGCAUCA
# B3: chr10:97759570:97759671:+|3pUTR|ENSG00000155256|msi1|FALSE|unique (ssRNA)
# RNA: GGGAGUUCUACAGUCCGACGAUCGACUGAGCGAGUGGACUUAGGGCUGGGCAGGCAGUAGCCACCAGAGGGCAGCAGCGAACUAGGCCAGGCCUGACUGGGGUCUGAAGAUCAGGGUCAGUGUGGCUGUGCCUGGGAAUUCCACAACAGAGGAUUGAGCAUCA
# B4: chr19:57572896:57572997:-|CDS|ENSG00000083817|unk|FALSE|unique (ssRNA)
# RNA: GGGAGUUCUACAGUCCGACGAUCCAUCGGAGAAUCCACACUGGAGAAAGGCCUUAUGUGUGUGGUCAGUGUGGGAAAUCAUUUAGCCAAAGAGCCACCCUCAUUAAACAUCACAGAGUUCACACUGGAGAAAGGCCUUACGAGCAACAGAGGAUUGAGCAUCA
# B5: chr11:71804996:71807656:-|three_prime_utr|ENSG00000289716|control|control|control (ssRNA)
# RNA: GGGAGUUCUACAGUCCGACGAUCGAGCCCAAGGAUGAAGGGGGCUCCCUCACUCUGUUACUGUGAAGAGGAAGCCUGAGGUGUAGCAGGCCCAGGCCCCAGAAGUAUGGAAAAAAAUGAGGUAGGGAGGGAGGGGACCUCAGGCAACAGAGGAUUGAGCAUCA
# B6: ENSG00000105576:stop:overlap|stop_codon|ENSG00000105576|stop_codon|NA|stop_codon (ssRNA)
# RNA: GGGAGUUCUACAGUCCGACGAUCAGUUCUCUGAGCAAUUCCCGCCGCUGCUCAAGGAGAGGCUGGCGGCUUUCUAUGGGGUCUAGGUGAUCAUGGAGACUGCCAGGUUUCUGUCUGCGUCGUCGUCGGAGGGAUUACUGGGGACAACAGAGGAUUGAGCAUCA
# B7: chr7:101138926:101139078:+|3pUTR|ENSG00000106366|msi1|total|mutant (ssRNA)
# RNA: GGGAGUUCUACAGUCCGACGAUCUAUUUUAAAGACCAAUUUAUGGGAGAAUUGCACACAGAUGUGAAAUGAAUGUAAUCUAACCGAAGCCUAAUCAGCCCACCAUGUUCUCCACUGAAAAAUCCUCUUUCUUUGGGGUUUUUCCAACAGAGGAUUGAGCAUCA
# B8: chr6:26414640:26414744:+|3pUTR|ENSG00000026950|unk|total|mutant (ssRNA)
# RNA: GGGAGUUCUACAGUCCGACGAUCCAGGCAGAGCAAAUACCCCCGAGAUUCUCUGUGAUACCGGAAAUUUGGAUGAAGGGAGCCCGAAGAAAUACAGGGAUUUUUUUUUUUUUUUAAGAUGGAGUCUUACUCUGUUGCCCGGCUCAACAGAGGAUUGAGCAUCA
# B9: chr1:246907611:246907713:-|CDS|ENSG00000153207|unk|FALSE|bound_elsewhere (ssRNA)
# RNA: GGGAGUUCUACAGUCCGACGAUCUGAAGUACCACACAUUAGAGAAAGUGUAAUGAGACAAGGGCGCCAUCUGUGUUUCCAGUUAGUAAGUCCAACAGGAACAGCUGUUUCAACUCUUAGUUACAUAAGCAGGACAAAUCAGCUCAACAGAGGAUUGAGCAUCA
# B10: chr1:162785649:162785750:+|3pUTR|ENSG00000162733|unk|FALSE|unique (ssRNA)
# RNA: GGGAGUUCUACAGUCCGACGAUCUGAAUGUUGUUUUUUUGAAUGAACAUAAGAUAGAAACAAAAACUUCUCAUCCAGUUAACUAGAGUGAAUGUAGGGAGAAUUGUUUUGCUUGUAACAUGGAGAGUUUAUUUUCAAGUGAGGCAACAGAGGAUUGAGCAUCA
# B11: chr1:92323927:92324037:+|CDS|ENSG00000122484|unk|total|mutant (ssRNA)
# RNA: GGGAGUUCUACAGUCCGACGAUCAGUGCAGAGCAUUUUAAGAGAAAAUUUGCCAAAUCAAACCAAGUGUCCCGGUCAGUGUCCCGUUCAGUGCAGGUGUGUCCUGAAGUUGGAAAGAGAAACUUACUUAAAGUUUUGAAGGAGCAACAGAGGAUUGAGCAUCA
# B12: chr1:11013840:11013957:+|CDS|ENSG00000120948|unk|FALSE|unique (ssRNA)
# RNA: GGGAGUUCUACAGUCCGACGAUCGGCGUGUGGGCUUCGCUACAGGAAUCCAGUGUCUCAGUGUAUGAGAGGUGUCCGGCUGGUAGAAGGAAUUCUGCAUGCCCCAGAUGCUGGCUGGGGAAAUCUGGUGUAUGUUGUCAACUACAACAGAGGAUUGAGCAUCA
# B13: ENSG00000198589:be:win_6151|CDS|ENSG00000198589|bound_else_gene|NA|bound_elsewhere_windowed (ssRNA)
# RNA: GGGAGUUCUACAGUCCGACGAUCACUCUGUCAUCCGUGGAUGAGAAAGAUUUAGAGAAUCUUGCCGGUCCUGUUAGCCUGAGCACACCAGCUCAGCUUGUGGCCCCCUCUGUUGUAGUAAAGGGCACUCUUUCUGUCACCUCCCAACAGAGGAUUGAGCAUCA
# B14: chr9:15171111:15171212:-|3pUTR|ENSG00000155158|unk|total|mutant (ssRNA)
# RNA: GGGAGUUCUACAGUCCGACGAUCCUGCUUUAAAUGAUAUGUAAAAUAUCAAUAAUUUUUACACUUAAGAUGUUGGUAAGACCCCGUUUUCUAAUCUCUCCCGCACUGUGAUGUCUCCUUGCCGAUAAUCUGGACCUUGCUCCGCAACAGAGGAUUGAGCAUCA
# B15: ENSG00000170502:stop:overlap|stop_codon|ENSG00000170502|stop_codon|NA|stop_codon (ssRNA)
# RNA: GGGAGUUCUACAGUCCGACGAUCUGGCUGAGAAACGAGAUGCACACUGGAGCGAGGACUCUGAAGCUGACUGCCAUGCGUUGUAGCUGAUGGUCUCCGUGUAAGCCAAAGGCCCACAGAGGAGCAUAUACUGAAAAGAAGGCACAACAGAGGAUUGAGCAUCA
# B16: chr1:35359206:35359314:+|CDS|ENSG00000146463|unk|FALSE|bound_elsewhere (ssRNA)
# RNA: GGGAGUUCUACAGUCCGACGAUCAAAGACUUUCCUAAACAAUUUGAUCAGGUUUCUGUCUUUAAAUCAAUACGGAAAGAUUUUAGUCUAGUAAGAGAAAACAGCAAAGAGACAUUUUCUGGAAAGGAGAAAAAUAGAGACCUACAACAGAGGAUUGAGCAUCA
# B17: chr1:110340924:110341033:+|CDS|ENSG00000162775|unk|FALSE|unique (ssRNA)
# RNA: GGGAGUUCUACAGUCCGACGAUCUGCUGCCUGGACCCAUAUGCGGGGCUUCCCACUUGGUGGCCCAGAUCGACGCCUUAGAGUAGACUUUGCCGACACCGAACAUCGUUACCAGCAGCAGUAUCUGCAGCCUCUGCCCUUGACCAACAGAGGAUUGAGCAUCA
# B18: chr9:35056615:35056731:-|3pUTR|ENSG00000165280|msi1|total|mutant (ssRNA)
# RNA: GGGAGUUCUACAGUCCGACGAUCCCCUAUCCAACCUGGGCCGGUGGGCCGGGGCCACAGUUGCUGGAUGUUUAUACCGAGAGCCGGUUGAUUUAUUUUACAUGCUUUUGAGUUAAUGUUGGAAAACUAAUCACAAGCAGUUUCCAACAGAGGAUUGAGCAUCA
# B19: ENSG00000086827:stop:overlap|stop_codon|ENSG00000086827|stop_codon|NA|stop_codon (ssRNA)
# RNA: GGGAGUUCUACAGUCCGACGAUCUAAUUCGUGCCUUGUUUCAGAACACAGAAAGAAGAGCAGCUGCCCUUGCUAAAAUUAAAUAGCUCCAUCUUCUUAAGAAAGCUAUGUCUUGAAUAUGUGGAUUCUUCCCUUGGCAUAAUUCAACAGAGGAUUGAGCAUCA
# B20: chr11:83166318:83166419:+|CDS|ENSG00000165494|unk|total|mutant (ssRNA)
# RNA: GGGAGUUCUACAGUCCGACGAUCGGGACAAAACCAGGGAGAUCGAGUACCCGAAAGCGAUCAAGAUCUCGAUCACCCAAGUCCCGGUCACCAAUUAUACAUUCCCCAAAGAGAAGAGACCGGCGGUCACCCAAACGAAGGCAACAACAGAGGAUUGAGCAUCA
# B21: chr2:222942681:222942782:+|3pUTR|ENSG00000123983|msi1|FALSE|unique (ssRNA)
# RNA: GGGAGUUCUACAGUCCGACGAUCAAAAUUAGUGUUUUUCCUAGUUUGCACUGAUGCGUGUAUGGAUGUGUGUGAGUCAGUGGUAGCUUAUUUAAAAAGCACCUUAUCCUUUCUCCCAUAACCUUUGUACACUAAAAAAUGAAACAACAGAGGAUUGAGCAUCA
# B22: chr5:154817497:154817598:+|3pUTR|ENSG00000155506|msi1_unk|total|mutant (ssRNA)
# RNA: GGGAGUUCUACAGUCCGACGAUCUUAUUGAGAGUAUCUGCUUUCCAGGCUGAAGUGAUUCAUUCAUUAUUCCCGUCCUGCUUCCGUCCUUUGUAAUUUGUGGUAAUUAUGCUUUUCUUUUUAAUACAAAAAAAUGUAUAAAAACAACAGAGGAUUGAGCAUCA
# Target: T1, UNK ZnF1-6 (called full-length)
# Assay: nsRBNS (natural sequence RNA bind-n-seq); RBNS binding buffer (assumed for nsRBNS): 25 mM Tris pH 7.5, 150 mM KCl, 3 mM MgCl2, 0.01% Triton X-100, 500 ug/ml BSA, 20 U/ml SUPERase-In, 4 C; UNK is unkempt and MSI1 is Musashi-1; names of the RNAs are library labels; protein concentration not given here; high values mean tight binding
row,Binder,binding signal
1,B1,0.419 enrichment R
2,B2,0.535 enrichment R
3,B3,1.37 enrichment R
4,B4,0.644 enrichment R
5,B5,1.01 enrichment R
6,B6,0.547 enrichment R
7,B7,0.352 enrichment R
8,B8,1.51 enrichment R
9,B9,0.797 enrichment R
10,B10,0.683 enrichment R
11,B11,0.623 enrichment R
12,B12,0.762 enrichment R
13,B13,0.587 enrichment R
14,B14,0.527 enrichment R
15,B15,0.907 enrichment R
16,B16,0.815 enrichment R
17,B17,0.796 enrichment R
18,B18,0.742 enrichment R
19,B19,1.49 enrichment R
20,B20,0.487 enrichment R
21,B21,0.982 enrichment R
22,B22,0.631 enrichment R
